Experimental data reported in patent US20230009608A1, “GRK2 INHIBITORS AND USES THEREOF” (Cygnal Therapeutics, Inc., priority 2020, published 2023).
The name of at least one read-out is uncertain.

System: PAXF1657 control empty vector cell line
Assay: 7-day proliferation assay, PAXF1657 control empty vector cell line (Example 9)
Assay type: cell-based
Conditions: Cell Line: PAXF1657 empty vector (EV) cell line
Outline: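 Read-out is CellTiter-Glo luminescence after 7 days of continuous exposure, with compound re-dosed in fresh medium at day 3. Cells were seeded at 500/well and treated across 30 μM-0.0002 μM (10 points, 0.3% DMSO); baseline viability plates were read at compound addition.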

Structure (SMILES)	D: 7-day proliferation assay: % Minimum GeoMean (%)
Cc1ccnc(CNC(=O)c2cccc(NCc3nnc(-c4ccncn4)n3C)c2)n1	63.4
Cn1c(CNc2cccc(C(=O)NCc3ncccn3)c2)nnc1-c1ccncn1	94.9
Cc1ncccc1CNC(=O)c1cccc(NCc2nnc(-c3ccncn3)n2C)c1	36.2
O=C(N[C@@H]1CCOc2c(Cl)cccc21)c1cccc(NCc2nnc(-c3ccncn3)n2CCO)c1	38.7
O=C(N[C@H]1CCOc2c(Cl)cccc21)c1cccc(NCc2nnc(-c3ccncn3)n2CCO)c1	24.1
Cc1cccc([C@H](CO)NC(=O)c2cccc(NCc3nnc(-c4ccncn4)n3CCO)c2)c1	56.0
Cc1cccc([C@@H](CO)NC(=O)c2cccc(NCc3nnc(-c4ccncn4)n3CCO)c2)c1	50.2
O=C(N[C@H]1COc2ccccc21)c1cccc(NCc2nnc(-c3ccncn3)n2CCO)c1	46.8
O=C(N[C@@H]1COc2ccccc21)c1cccc(NCc2nnc(-c3ccncn3)n2CCO)c1	47.5
C[C@@H](NC(=O)c1cccc(NCc2nnc(-c3ccncn3)n2CCO)c1)c1ncccc1Cl	45.2
C[C@H](NC(=O)c1cccc(NCc2nnc(-c3ccncn3)n2CCO)c1)c1ncccc1Cl	35.9
COCCCn1c(CNc2cccc(C(=O)NCc3cccnc3C(F)(F)F)c2)nnc1-c1ccncn1	25.9
COCCOc1ccc(CNC(=O)c2cccc(NCc3nnc(-c4ccncn4)n3C)c2)cc1	47.1
COCCOc1cccc(CNC(=O)c2cccc(NCc3nnc(-c4ccncn4)n3C)c2)c1	55.7
O=C(NCc1cccnc1C(F)(F)F)c1cccc(NCc2nnc(-c3ccncn3)n2CCCN2CCC[C@H]2CO)c1	76.3
Cn1c(CNc2cccc(C(=O)N[C@@H]3CCOc4c(Br)cccc43)c2)nnc1-c1ccncn1	63.9
Cn1c(CNc2cccc(C(=O)N[C@H]3CCOc4c(Br)cccc43)c2)nnc1-c1ccncn1	45.6
Cc1ccc2c(c1)OCC[C@H]2NC(=O)c1cccc(NCc2nnc(-c3ccncn3)n2C)c1	0.644
Cc1ccc2c(c1)OCC[C@@H]2NC(=O)c1cccc(NCc2nnc(-c3ccncn3)n2C)c1	0.138
Cc1ccc2c(c1)[C@H](NC(=O)c1cccc(NCc3nnc(-c4ccncn4)n3C)c1)CCO2	35.6

Structure (SMILES)	D: 7-day proliferation assay: % Minimum GeoMean (%)
Cc1ccc2c(c1)[C@@H](NC(=O)c1cccc(NCc3nnc(-c4ccncn4)n3C)c1)CCO2	69.3
Cn1c(CNc2cccc(C(=O)N[C@@H]3CCOc4cc(Br)ccc43)c2)nnc1-c1ccncn1	7.49
Cn1c(CNc2cccc(C(=O)N[C@H]3CCOc4cc(Br)ccc43)c2)nnc1-c1ccncn1	8.51
Cn1c(CNc2cccc(C(=O)N[C@@H]3CCOc4cc(Cl)ccc43)c2)nnc1-c1ccncn1	49.9
Cc1cccnc1CNC(=O)c1cccc(NCc2nnc(-c3ccncn3)n2C)c1 [drawing 264]	33.5
Cn1c(CNc2cccc(C(=O)NCc3ccncc3Cl)c2)nnc1-c1ccncn1 [drawing 276]	27
Cc1csc(CNC(=O)c2cccc(NCc3nnc(-c4ccncn4)n3C)c2)n1 [drawing 283]	59.7
CN1CCC(NC(=O)c2cccc(NCc3nnc(-c4ccncn4)n3C)c2)c2ccccc21 (centres unmarked) [drawing 321]	38.9
Cn1c(CNc2cccc(C(=O)NCc3ccnc(OCC(F)(F)F)c3)c2)nnc1-c1ccncn1 [drawing 339]	18.7
C[C@H](NC(=O)c1cccc(NCc2nnc(-c3ccncn3)n2C)c1)c1cccnc1 [drawing 345]	55.1
Cn1c(CNc2cccc(C(=O)NCc3cccc4cccnc34)c2)nnc1-c1ccncn1 [drawing 359]	11.2
COc1cccc(C(C)NC(=O)c2cccc(NCc3nnc(-c4ccncn4)n3C)c2)c1 (centres unmarked) [drawing 381]	40.7
CC1Cc2cc(CNC(=O)c3cccc(NCc4nnc(-c5ccncn5)n4C)c3)ccc2O1 (centres unmarked) [drawing 401]	31.1
Cc1csc(CNC(=O)c2cccc(NCc3nnc(-c4ccncn4)n3C)c2)n1 [drawing 407]	46.6
COc1ncccc1CNC(=O)c1cccc(NCc2nnc(-c3ccncc3)[nH]2)c1 [drawing 424]	29.8
Cn1ccnc1C(NC(=O)c1cccc(NCc2nnc(-c3ccncc3)[nH]2)c1)C1CC1 (centres unmarked) [drawing 485]	21.9
COc1cccc(C(CO)NC(=O)c2cccc(NCc3nnc(-c4ccncn4)n3C)c2)c1 (centres unmarked) [drawing 569]	84.6
Cn1c(CNc2cccc(C(=O)NCc3cnccc3Cl)c2)nnc1-c1ccncn1 [drawing 570]	52.2
Cn1c(CNc2cccc(C(=O)NCc3ccc4c(c3)CCN4)c2)nnc1-c1ccncn1 [drawing 571]	75.3
Cn1c(CNc2cccc(C(=O)NC3CCOc4cccnc43)c2)nnc1-c1ccncn1 (centres unmarked) [drawing 572]	67.5

Structure (SMILES)	D: 7-day proliferation assay: % Minimum GeoMean (%)
Cc1ccc(C(CO)NC(=O)c2cccc(NCc3nnc(-c4ccncn4)n3C)c2)cc1 (centres unmarked) [drawing 575]	79.4
CCOc1ccc(C(CO)NC(=O)c2cccc(NCc3nnc(-c4ccncn4)n3C)c2)cn1 (centres unmarked) [drawing 577]	77.2
Cn1c(CNc2cccc(C(=O)NCc3ccc(-n4ccnn4)cc3)c2)nnc1-c1ccncn1 [drawing 579]	94.9
Cn1cccc1CNC(=O)c1cccc(NCc2nnc(-c3ccncn3)n2C)c1 [drawing 585]	70.4
Cc1cc2c(cc1CNC(=O)c1cccc(NCc3nnc(-c4ccncn4)n3C)c1)OCCO2 [drawing 588]	52
Cc1cccc(C(CO)NC(=O)c2cccc(NCc3nnc(-c4ccncn4)n3C)c2)c1 (centres unmarked) [drawing 589]	71.9
Cn1c(CNc2cccc(C(=O)NCc3cccc(C#N)c3)c2)nnc1-c1ccncn1 [drawing 591]	66.9
Cc1ccc2ncc(CNC(=O)c3cccc(NCc4nnc(-c5ccncn5)n4C)c3)n2c1 [drawing 596]	59.3
CC(NC(=O)c1cccc(NCc2nnc(-c3ccncn3)n2C)c1)c1c[nH]cn1 (centres unmarked) [drawing 599]	87.7
Cn1c(CNc2cccc(C(=O)NCc3ccc(-n4nccn4)cc3)c2)nnc1-c1ccncn1 [drawing 601]	73.5
Cn1c(CNc2cccc(C(=O)NCc3ccc(C#N)cc3)c2)nnc1-c1ccncn1 [drawing 603]	81.8
Cn1nccc1CNC(=O)c1cccc(NCc2nnc(-c3ccncn3)n2C)c1 [drawing 608]	66.9
Cc1nc(CNC(=O)c2cccc(NCc3nnc(-c4ccncn4)n3C)c2)cs1 [drawing 610]	63.7
Cn1c(CNc2cccc(C(=O)NCc3ccc4nccn4c3)c2)nnc1-c1ccncn1 [drawing 611]	70.7
Cn1c(CNc2cccc(C(=O)NCc3cnn(-c4ccccc4)n3)c2)nnc1-c1ccncn1 [drawing 616]	527
CCS(=O)(=O)c1ccc(CNC(=O)c2cccc(NCc3nnc(-c4ccncn4)n3C)c2)cc1 [drawing 618]	86.3
Cc1ccn2c(CNC(=O)c3cccc(NCc4nnc(-c5ccncn5)n4C)c3)cnc2c1 [drawing 620]	78.6
C[C@@H](NC(=O)c1cccc(NCc2nnc(-c3ccncn3)n2C)c1)c1ncccc1Cl [drawing 845]	56.7
Cn1c(CNc2cccc(C(=O)N[C@@H]3COCc4ccccc43)c2)nnc1-c1ccncn1 [drawing 851]	47.6
